# Some of the results follow.
# B1: Mincle (Homo sapiens), Q9ULY5 (protein)
# chain: MNSSKSSETQCTERGCFSSQMFLWTVAGIPILFLSACFITRCVVTFRIFQTCDEKKFQLPENFTELSCYNYGSGSVKNCCPLNWEYFQSSCYFFSTDTISWALSLKNCSAMGAHLVVINSQEEQEFLSYKKPKMREFFIGLSDQVVEGQWQWVDGTPLTKSLSFWDVGEPNNIATLEDCATMRDSSNPRQNWNDVTCFLNYFRICEMVGINPLNKGKSL
# Assays:
# Experiment in all cases: glycan array binding signal (z-score within array); higher = stronger binding
# Details in all cases: glycan notation: IUPAC condensed, linker removed
# [1] = molecular target: Gal(b1-4)GlcNAc(b1-3)Gal(b1-4)GlcNAc
# Summary of the method: (§1)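 Glycan array data came from 3228 arrays in the Consortium for Functional Glycomics database, and only arrays with an available protein sequence were kept. Glycan names were put into IUPAC-condensed notation, and columns mapping to the same glycan were averaged. The binding signal is a within-array Z-score, averaged across arrays of one protein sequence run at different concentrations or buffers and across linkers. A negative Z-score can be read as non-binding.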
# [2] = molecular target: Gal(b1-4)GlcNAc(b1-3)Gal(b1-4)GlcNAc(b1-3)Gal(b1-4)GlcNAc
# Summary of the method: as §1
# [3] = molecular target: Gal(b1-4)GlcNAc(b1-3)Gal(b1-4)[Fuc(a1-3)]GlcNAc(b1-3)Gal(b1-4)[Fuc(a1-3)]GlcNAc
# Summary of the method: as §1
# [4] = molecular target: Gal(b1-4)GlcNAc(b1-3)GalNAc
# Summary of the method: as §1
# [5] = molecular target: Gal(b1-4)GlcNAc(b1-3)[Gal(b1-4)GlcNAc(b1-6)]Gal(b1-4)GlcNAc
# Summary of the method: as §1
# [6] = molecular target: Gal(b1-4)GlcNAc(b1-3)[Gal(b1-4)GlcNAc(b1-6)]GalNAc
# Summary of the method: as §1
# [7] = molecular target: Gal(b1-4)GlcNAc(b1-3)[GlcNAc(b1-6)]Gal(b1-4)GlcNAc
# Summary of the method: as §1
# [8] = molecular target: Gal(b1-4)GlcNAc(b1-6)Gal(b1-4)GlcNAc
# Summary of the method: as §1
# [9] = molecular target: Gal(b1-4)GlcNAc(b1-6)Gal(b1-4)GlcNAc(b1-6)GalNAc
# Summary of the method: as §1
# [10] = molecular target: Gal(b1-4)GlcNAc(b1-6)GalNAc
# Summary of the method: as §1
# [11] = molecular target: Gal(b1-4)GlcNAc(b1-6)[Gal(b1-3)]GalNAc
# Summary of the method: as §1
# Gal3S(b1-3)GalNAc = molecular target: Gal3S(b1-3)GalNAc
# Summary of the method: as §1
# Gal3S(b1-3)GlcNAc = molecular target: Gal3S(b1-3)GlcNAc
# Summary of the method: as §1
# [12] = molecular target: Gal3S(b1-3)[Fuc(a1-4)]GlcNAc
# Summary of the method: as §1
# Gal3S(b1-4)Glc = molecular target: Gal3S(b1-4)Glc
# Summary of the method: as §1
# Gal3S(b1-4)Glc6S = molecular target: Gal3S(b1-4)Glc6S
# Summary of the method: as §1
# Gal3S(b1-4)GlcNAc = molecular target: Gal3S(b1-4)GlcNAc
# Summary of the method: as §1
# Gal3S(b1-4)GlcNAc6S = molecular target: Gal3S(b1-4)GlcNAc6S
# Summary of the method: as §1
# [13] = molecular target: Gal3S(b1-4)[Fuc(a1-3)]Glc
# Summary of the method: as §1
# [14] = molecular target: Gal3S(b1-4)[Fuc(a1-3)]Glc6S
# Summary of the method: as §1
# Gal3S4S(b1-4)GlcNAc = molecular target: Gal3S4S(b1-4)GlcNAc
# Summary of the method: as §1
# Gal3S6S(b1-4)GlcNAc = molecular target: Gal3S6S(b1-4)GlcNAc
# Summary of the method: as §1
# Gal3S6S(b1-4)GlcNAc6S = molecular target: Gal3S6S(b1-4)GlcNAc6S
# Summary of the method: as §1
# Gal4S(b1-4)GlcNAc = molecular target: Gal4S(b1-4)GlcNAc
# Summary of the method: as §1
# Gal4S6S(b1-4)GlcNAc = molecular target: Gal4S6S(b1-4)GlcNAc
# Summary of the method: as §1
# Gal6S(b1-4)Glc = molecular target: Gal6S(b1-4)Glc
# Summary of the method: as §1
# Gal6S(b1-4)Glc6S = molecular target: Gal6S(b1-4)Glc6S
# Summary of the method: as §1
# Gal6S(b1-4)GlcNAc = molecular target: Gal6S(b1-4)GlcNAc
# Summary of the method: as §1
# Gal6S(b1-4)GlcNAc6S = molecular target: Gal6S(b1-4)GlcNAc6S
# Summary of the method: as §1
# GalNAc(a1-3)Gal = molecular target: GalNAc(a1-3)Gal
# Summary of the method: as §1
# GalNAc(a1-3)GalNAc = molecular target: GalNAc(a1-3)GalNAc
# Summary of the method: as §1
# [15] = molecular target: GalNAc(a1-3)GalNAc(a1-3)Gal(a1-4)Gal(b1-4)GlcNAc
# Summary of the method: as §1
# GalNAc(b1-3)Gal = molecular target: GalNAc(b1-3)Gal
# Summary of the method: as §1
# [16] = molecular target: GalNAc(b1-3)Gal(a1-4)Gal(b1-4)GlcNAc
# Summary of the method: as §1
# [17] = molecular target: GalNAc(b1-3)Gal(a1-4)Gal(b1-4)GlcNAc(b1-3)Gal(b1-4)Glc
# Summary of the method: as §1
# [18] = molecular target: GalNAc(b1-3)Gal(a1-6)Gal(b1-4)Glc
# Summary of the method: as §1
# GalNAc(b1-3)GalNAc = molecular target: GalNAc(b1-3)GalNAc
# Summary of the method: as §1
# GalNAc(b1-4)GlcNAc = molecular target: GalNAc(b1-4)GlcNAc
# Summary of the method: as §1
# [19] = molecular target: GalNAc(b1-4)GlcNAc(b1-2)Man(a1-3)[GalNAc(b1-4)GlcNAc(b1-2)Man(a1-6)]Man(b1-4)GlcNAc(b1-4)GlcNAc
# Summary of the method: as §1
# Glc(a1-4)Glc = molecular target: Glc(a1-4)Glc
# Summary of the method: as §1
# Glc(a1-6)Glc(a1-6)Glc = molecular target: Glc(a1-6)Glc(a1-6)Glc
# Summary of the method: as §1
# Glc(b1-4)Glc = molecular target: Glc(b1-4)Glc
# Summary of the method: as §1
# Glc(b1-6)Glc = molecular target: Glc(b1-6)Glc
# Summary of the method: as §1
# GlcA(b1-3)Gal = molecular target: GlcA(b1-3)Gal
# Summary of the method: as §1
# GlcA(b1-3)GlcNAc = molecular target: GlcA(b1-3)GlcNAc
# Summary of the method: as §1
binder,measurement,setting,value
B1,glycan array binding signal (z-score),[1],-0.27
same,glycan array binding signal (z-score),[2],0.047
same,glycan array binding signal (z-score),[3],-0.332
same,glycan array binding signal (z-score),[4],-0.405
same,glycan array binding signal (z-score),[5],0.237
same,glycan array binding signal (z-score),[6],0.009
same,glycan array binding signal (z-score),[7],-0.066
same,glycan array binding signal (z-score),[8],-0.126
same,glycan array binding signal (z-score),[9],-0.343
same,glycan array binding signal (z-score),[10],-0.306
same,glycan array binding signal (z-score),[11],-0.305
same,glycan array binding signal (z-score),Gal3S(b1-3)GalNAc,-0.374
same,glycan array binding signal (z-score),Gal3S(b1-3)GlcNAc,0.417
same,glycan array binding signal (z-score),[12],2.46
same,glycan array binding signal (z-score),Gal3S(b1-4)Glc,-0.316
same,glycan array binding signal (z-score),Gal3S(b1-4)Glc6S,0.377
same,glycan array binding signal (z-score),Gal3S(b1-4)GlcNAc,0.208
same,glycan array binding signal (z-score),Gal3S(b1-4)GlcNAc6S,0.051
same,glycan array binding signal (z-score),[13],-0.146
same,glycan array binding signal (z-score),[14],0.358
same,glycan array binding signal (z-score),Gal3S4S(b1-4)GlcNAc,0.794
same,glycan array binding signal (z-score),Gal3S6S(b1-4)GlcNAc,0.034
same,glycan array binding signal (z-score),Gal3S6S(b1-4)GlcNAc6S,1.38
same,glycan array binding signal (z-score),Gal4S(b1-4)GlcNAc,0.598
same,glycan array binding signal (z-score),Gal4S6S(b1-4)GlcNAc,0.101
same,glycan array binding signal (z-score),Gal6S(b1-4)Glc,0.256
same,glycan array binding signal (z-score),Gal6S(b1-4)Glc6S,-0.08
same,glycan array binding signal (z-score),Gal6S(b1-4)GlcNAc,0.205
same,glycan array binding signal (z-score),Gal6S(b1-4)GlcNAc6S,0.133
same,glycan array binding signal (z-score),GalNAc(a1-3)Gal,-0.323
same,glycan array binding signal (z-score),GalNAc(a1-3)GalNAc,-0.305
same,glycan array binding signal (z-score),[15],-0.357
same,glycan array binding signal (z-score),GalNAc(b1-3)Gal,-0.283
same,glycan array binding signal (z-score),[16],-0.512
same,glycan array binding signal (z-score),[17],-0.444
same,glycan array binding signal (z-score),[18],-0.249
same,glycan array binding signal (z-score),GalNAc(b1-3)GalNAc,-0.566
same,glycan array binding signal (z-score),GalNAc(b1-4)GlcNAc,-0.353
same,glycan array binding signal (z-score),[19],-0.089
same,glycan array binding signal (z-score),Glc(a1-4)Glc,-0.235
same,glycan array binding signal (z-score),Glc(a1-6)Glc(a1-6)Glc,-0.482
same,glycan array binding signal (z-score),Glc(b1-4)Glc,-0.501
same,glycan array binding signal (z-score),Glc(b1-6)Glc,-0.38
same,glycan array binding signal (z-score),GlcA(b1-3)Gal,-0.432
same,glycan array binding signal (z-score),GlcA(b1-3)GlcNAc,-0.377

# From the supplement of paper PMC8728848
